Measurements: PubChem BioAssay AID889 (National Center for Advancing Translational Sciences (NCATS), 2007)
“And” between values parts separate entries of the source, which are not always exact repeats. Equal values may be shown once. Hit rate of the full screen: of about 75,000 compounds, about 15 (0.02%) were called active. The inconclusive results got no clear call from the source; some entries with a clear call stand among them for comparison. Calls follow the shape of the dose curve; as a rule, active = well fitted inhibition curve with a large enough effect in the main read-out, with a control signal flat (not every such curve was filed as active); inconclusive = small, poorly fitted or top-dose-only effect, or a change in a side signal; inactive = flat fitted curve, though single readings scatter. Potencies beside an inconclusive call are fits to weak or partial responses and may not hold up. “Side channel” marks fits to a control or component signal instead of the main read-out.

molecular target: Caspase-7 (Homo sapiens) (UniProt P55210); assay: qHTS Assay for Allosteric/Competitive Inhibitors of Caspase-7; settings: recombinant caspase-7, Ac-DEVD-AFC fluorescence rate; activity change, negative = inhibition: at 57.5 µM (top of the series) unless noted; as to activity change, negative = inhibition: % of control where 0% means no effect
Chain of UniProt P55210 (P55210 whole entry, looked up): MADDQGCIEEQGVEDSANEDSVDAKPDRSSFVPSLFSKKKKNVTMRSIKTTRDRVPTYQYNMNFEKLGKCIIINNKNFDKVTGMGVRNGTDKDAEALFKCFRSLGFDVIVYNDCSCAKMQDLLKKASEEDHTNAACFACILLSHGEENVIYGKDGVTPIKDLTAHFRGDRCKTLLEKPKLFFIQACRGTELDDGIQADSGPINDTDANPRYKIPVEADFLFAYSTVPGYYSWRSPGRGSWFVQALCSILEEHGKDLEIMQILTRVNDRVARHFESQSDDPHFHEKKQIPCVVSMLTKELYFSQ
Potency is read from the fitted curve at half-maximal effect; tags tell the direction and shape of the fitted curve or compound fluorescence and quenching.

Row | SMILES | Potency | activity change, negative = inhibition
1 | O=c1c(-c2ccc(Cl)cc2)nc2cnc(N3CCOCC3)nc2n1CCc1ccccc1 | inconclusive: 2.51 µM [fluorescent, full curve] | 
2 | CCn1c(=N)c(C(=O)NCCCOC)cc2c(=O)n3cccc(C)c3nc21 | inconclusive: 5.01 µM [fluorescent, side channel, partial curve] | 
3 | NC(=O)CSc1nc2scc(-c3ccco3)c2c(=O)n1-c1ccccc1 |  | inactive: -14.8%
4 | O=c1c(O)c(-c2ccc(O)cc2)oc2cc(O)ccc12 | inconclusive: 12.6 µM [fluorescent, partial curve] | 
5 | O=C1c2ccccc2NC2CCCCC12 (configuration not stated) |  | inactive: -7.12%
6 | O=c1c(-c2ccc(F)cc2)nc2cnc(Oc3ccccc3)nc2n1Cc1cccs1 | inconclusive: 20 µM [inhibitor, partial curve] | 
7 | N#CC1=C(N)Oc2n[nH]c(-c3cccs3)c2C1c1ccsc1 (configuration not stated) |  | inactive: -0.089%
8 | CCNc1ncc2nc(-c3cc(F)cc(F)c3)c(=O)n(C[C@H]3CCCO3)c2n1 | inconclusive: 2 µM [fluorescent, side channel, full curve] | 
9 | COc1ccc(C2=CC(c3ccc(OC)c(OC)c3)n3nnnc3N2)c(OC)c1 (configuration not stated) | inconclusive: 31.6 µM [fluorescent, side channel, partial curve] | 
10 | O=c1ccc2cc(O)c(O)cc2o1 | inconclusive: 3.98 µM [fluorescent, side channel, partial curve] and inconclusive: 7.94 µM [fluorescent, side channel, partial curve] | 
11 | Cn1c(/C(C#N)=C(\O)CN2CCN(Cc3ccccc3)CC2)nc2ccccc21 |  | inactive: -0.0989%
12 | COC(=O)c1c(=O)n(O)c2ccc(OC)cc2[n+]1[O-] | inconclusive: 20 µM [inhibitor, single point] | 
13 | COc1ccc(-c2nc3cnc(N4CCOCC4)nc3n(Cc3cccs3)c2=O)cc1 | inconclusive: 1.26 µM [fluorescent, side channel, partial curve] | 
14 | COc1cccc(Cn2c(=O)c(-c3cccs3)nc3cncnc32)c1 | inconclusive: 25.1 µM [fluorescent, partial curve] | 
15 | O=C(NCc1ccco1)c1ccc2nc3sc4c(c3c(=O)n2c1)CCCC4 | inconclusive: 25.1 µM [fluorescent, partial curve] | 
16 | Cc1cccc(-n2c(O)c(C=Nc3ccc4c(c3)OCO4)c3ccccc3c2=O)n1 | inconclusive: 25.1 µM [inhibitor, single point] | 
17 | Brc1ccc(C2Nc3cccc4cccc(c34)N2)o1 |  | inactive: -14.4%
18 | S=C(c1ccc(-c2cccc(Cl)c2)o1)N1CCOCC1 |  | inactive: -5.78%
19 | Cc1cc(NC(=O)CCCC(=O)NCc2cccs2)no1 | inconclusive: 1 µM [fluorescent, partial curve] | 
20 | CCN1CCc2nc(NC(=O)c3ccc4c(c3)OCCO4)sc2C1 | inconclusive: 25.1 µM [fluorescent, partial curve] | 
21 | CN(C)c1ncc2ncc(=O)n(CCC#N)c2n1 | inconclusive: 20 µM [fluorescent, side channel, partial curve] | 

Row | SMILES | Potency | activity change, negative = inhibition
22 | CN(C)c1ncc2nc(-c3ccc(F)cc3)c(=O)n(Cc3ccc(F)cc3)c2n1 | inconclusive: 0.794 µM [fluorescent, side channel, full curve] | 
23 | C/C(=C\C(=O)c1ccc(C)cc1)Nc1cccc(O)c1 |  | inactive: -2.91%
24 | COc1ccc2nc(N3CCC(O)CC3)c(C#N)cc2c1 | inconclusive: 12.6 µM [fluorescent, side channel, partial curve] | 
25 | Cc1occc1-c1nnc(SCc2nnc(-c3ccc(Cl)cc3)o2)n1C |  | inactive: -1.7%
26 | Cc1cccn2c(=O)c3cc(C(=O)NCc4ccco4)c(=N)n(C(C)C)c3nc12 | inconclusive: 2.51 µM [fluorescent, side channel, partial curve] | 
27 | Cn1cc(-c2nc3cnc(N4CCNCC4)nc3n(CCc3ccccc3)c2=O)c2ccccc21 | inconclusive: 6.31 µM [fluorescent, side channel, partial curve] | 
28 | NNC(=O)c1ccc[n+](CCc2ccccc2)c1 |  | inactive: 1.73% [at 11.5 µM]
29 | COc1cccc(N2CC(O)=C(c3nc4ccccc4c(=O)[nH]3)C2=N)c1 |  | inactive: -0.124%
30 | Oc1ccc(N=Cc2ccc(-c3cccs3)s2)cc1 | inconclusive: 15.8 µM [fluorescent, partial curve] | 
31 | Cn1c(=O)c2c(nc(C(=N)SCC(=O)O)n2C)n(C)c1=O | inconclusive: 3.16 µM [fluorescent, partial curve] | 
32 | COC(=O)c1[nH]c2cc(C)ccc2c1NC(=O)CN1CCN(C(=O)c2ccco2)CC1 | inconclusive: 31.6 µM [fluorescent, single point] | 
33 | O=C(Cc1cccs1)N1CCCC(c2nc(-c3ccc(S(=O)(=O)N4CCCC4)cc3)no2)C1 (configuration not stated) |  | inactive: -4.24%
34 | COc1ncc2nc(-c3cccs3)c(=O)n(CCc3ccccc3)c2n1 | inconclusive: 5.01 µM [fluorescent, side channel, full curve] | 
35 | Cc1cc2n(n1)C(c1ccc(N(C)C)cc1)Nc1ccccc1-2 (configuration not stated) | inconclusive: 31.6 µM [fluorescent, single point] | 
36 | O=C1CCC(c2ccccc2)=NN1c1nc2ccccc2s1 |  | inactive: 1.43% [at 11.5 µM]
37 | c1ccc(Cn2c(CSc3nnnn3-c3ccccc3)nc3ccccc32)cc1 | inconclusive: 20 µM [fluorescent, partial curve] | 
38 | COc1ccc(CNc2ncnc3ccc(-c4ccccc4OC)cc23)c(OC)c1 |  | inactive: -5.03%
39 | Cc1cc(C)c2c(n1)nn1c(NCCCn3ccnc3)cc(C)nc21 | inconclusive: 25.1 µM [fluorescent, partial curve] | 
40 | O[C@@H](c1cc(-c2ccccc2)nc2c1ccc1ccccc12)[C@@H]1CCCCN1 |  | inactive: -2.84% [at 11.5 µM]
41 | CCOC(=O)c1cnn(-c2ccccn2)c1N |  | inactive: 0.966%
42 | CCOc1ccccc1C1C(C(=O)OC)=CN(C)C=C1C(=O)OC | inconclusive: 7.94 µM [fluorescent, side channel, partial curve] | 
